Experimental data reported in PMC12040169 (PLOS Biology, 2025).
Some of the results follow.

Test system: T1, C. trachomatis L2/434/Bu expressing GFP (CTL2-GFP)
T1 construct: L2/434/Bu GFP intracellular growth in HeLa cells
Set-up: species or system HeLa; C. trachomatis total inclusion area by high-content imaging, normalised to DMSO
Conditions: total inclusion area; 28.5 h, 10 µM; inhibitor
In short: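 Following bulk GFP and resorufin fluorescence reads, infected cells were fixed, Hoechst-stained and imaged on a high-content platform. Inclusion total area and number per well served as growth proxies; nuclei counts indicated host viability. MICs were derived as for the fluorescence assay.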

SMILES | % of control remaining
O=C(N/N=C/c1cc2c(cc1Cl)OCO2)C(O)c1ccccc1 (stereo not shown) [CBK262177] | 94.5703
CCOC(=O)Nc1ccc2c(c1)N(C(=O)CCN(C)C)c1ccccc1CC2 [CBK278193C] | 103.766
Cc1ccc2[nH]c(-c3ccccc3NC(=O)CCCC(=O)O)nc2c1 [CBK295154] | 108.853
Cc1ccc(-c2nc3ccccc3[nH]2)cc1NC(=O)CSc1ccc(Cl)cc1 [CBK268942] | 104.798
Cc1nnc(N2C(=O)c3oc4ccccc4c(=O)c3C2c2ccc(OCc3ccccc3)cc2)s1 (stereo not shown) [CBK266287] | 126.028
CC(=O)NCCn1nc(-c2ccccc2F)cc1CN(C)C [CBK283473] | 103.878
Cc1cc(C(=O)N2CCC(C(=O)NC(c3cnccn3)c3ccccc3C)CC2)no1 (stereo not shown) [CBK059810] | 89.9896
O=C(O)/C=C/c1cccc(-c2cncc(NCCc3ccncc3)n2)c1 [CBK065358] | 138.805
COc1ccc(C(NC(=O)C2CCN(Cc3ccc4c(c3)OCO4)CC2)c2ccccc2C)cn1 (stereo not shown) [CBK081453T] | 102.758
CCOc1cccc(CNc2ccc(O)cc2)c1OCc1ccc(Cl)cc1Cl [CBK074528] | 68.6993
Cc1nc(C2CCN(C(=O)c3ccnn3C)CC2)c2sccn12 [CBK285203] | 89.3919
O=C(c1ccco1)N1CCC(c2nnc(-c3ccccc3)c(-c3ccccc3)n2)CC1 [CBK286282] | 118.773
CCNc1ncc(C(=O)N2CCC(Nc3cccnc3)CC2)s1 [CBK304047] | 60.4144
Nc1nonc1C(=O)NCCNS(=O)(=O)c1ccc(F)cc1 [CBK265980] | 83.0691
CN1CCCC1C(CCNC1CCCCC1)c1ccccc1 (stereo not shown) [CBK023921C] | 39.321
CCCn1c(O)cc(=O)nc1SCC(=O)N1CCCc2ccccc21 [CBK304977] | 76.3945
CC(Oc1ccc2c(c1)OCO2)C(=O)N1CCc2sccc2C1c1ccccc1 (stereo not shown) [CBK285549] | 108.191
O=C(NCCCN1CCOCC1)Nc1ccccc1F [CBK269233] | 88.3027
Cc1cc(C)nc(SCC(=O)c2ccc(F)cc2)n1 [CBK092116] | 52.5915
CCn1cc(CN(C)Cc2ccon2)c2cc(C(=O)O)ncc21 [CBK307017] | 87.1462

SMILES | % of control remaining
O=C(c1cc(F)cc(F)c1)N1CCC(c2cccnc2)CC1 [CBK283892] | 77.0093
COc1cc(/C=N/Nc2nnn[nH]2)cc2c1OCO2 [CBK262253] | 102.861
O=C(N[C@@H](Cn1cc(Cl)c(=O)[nH]c1=O)C(=O)O)c1cccc(F)c1 [CBK289650] | 123.898
COc1cc(CN2CCN(c3cc(C)ccc3C)CC2)cc([N+](=O)[O-])c1O [CBK261868] | 103.969
CCC(C)NC(=O)c1ccccc1NS(=O)(=O)c1cc(C(=O)O)cs1 (stereo not shown) [CBK295652] | 107.959
COc1cc(NC(=O)N[C@@H]2CN(C)C[C@H]2c2ccc(OC)c(OC)c2)cc(OC)c1 [CBK081112] | 71.5917
Cc1cccc(C2(O)CCN(CC(O)c3ccccc3)CC2)c1 (stereo not shown) [CBK286325] | 98.0789
NNc1nc(-c2ccccc2)cc(-c2ccc(Br)cc2)n1 [CBK261795] | 102.952
O=C(CSc1nsc(SCC(=O)c2ccccc2)n1)c1ccccc1 [CBK264142] | 96.7852
CS(=O)(=O)Nc1ccc2cc(-c3ccc(Oc4ccccc4)cc3)cnc2n1 [CBK085674] | 115.196
FC(F)(F)c1ccnc(OCCN2CCNCC2)c1 [CBK113459] | 105.515
Cc1ccccc1C(=O)NCCNC(=O)c1cccnc1 [CBK269222] | 85.1879
O=C(Nc1ccc([C@@H](O)[C@H]2COCC(=O)N2Cc2ccc(F)cc2)cc1)c1ccccc1 [CBK289061] | 121.322
O=C(C1=C(O)C(=O)N(CCN2CCOCC2)C1c1ccco1)c1cccs1 (stereo not shown) [CBK264506] | 109.438
O=C(NCc1cccs1)c1ccccc1Nc1cccc(C(F)(F)F)c1 [CBK149557] | 55.0903
CC(C)NCC(O)Cn1c2c(c3ccccc31)CCc1c-2cnn1-c1ccccc1 (stereo not shown) [CBK261107] | 42.481
COc1ccc([C@@]23CC[C@@H](NC(=O)Nc4ccc(F)c(F)c4)C[C@@H]2N(C)CC3)cc1O [CBK051630] | 79.1394
O=C(O)Cn1nnc(-c2ccc(C(=O)O)cc2)n1 [CBK267926] | 96.4385
O=C(Nc1ccc(F)cc1Cl)c1cnc2n(c1=O)CCS2 [CBK287382] | 70.576
CN1CC[C@]2(c3ccc4c(c3)nnn4C)CC[C@@H](NC(=O)Nc3cc(F)cc(C(F)(F)F)c3)C[C@H]12 [CBK067800] | 83.3579
